{"source": "PubChem BioAssay AID588855", "about": "(National Center for Advancing Translational Sciences (NCATS), 2011)", "note": "Out of some 410,000 compounds screened, about 5,000 (1.2%) were called active. The shares of active, inactive and inconclusive entries below differ from those in the screen. The call rests on the fitted dose curve; in most records, active means well fitted inhibition curve with a large enough effect; inconclusive means small, poorly fitted or top-dose-only effect; inactive means no such curve, though single readings can be large or run the other way. Where the call is inconclusive, the potency comes from a doubtful curve fit. Potency means the concentration at half of the fitted maximal effect; tags describe the fitted curve by direction and shape."}
{"assay": "qHTS for Inhibitors of TGF-b; further: nearly all actives have a fitted effect of over 65% in size", "settings": "HepG2 CAGA-GFP TGF-b/SMAD3 reporter, GFP fluorescence, 18 h, TGF-beta stimulated, 500 pg/mL final; series mostly up to 46.1 µM", "method_in_brief": "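Cell-based qHTS in HEPG2 carrying a CAGA-GFP Smad reporter; compounds added before 500 pg/mL final TGF-beta, 18 h incubation at 37 degrees C, GFP fluorescence quantified per cell by imaging cytometry.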"}
{"smiles": "Cc1ccc2cc(C3C(C#N)=C(N)Oc4c3ccc3cccnc43)c(=O)[nH]c2c1", "note": "(configuration not stated)", "Potency": "inconclusive: 11.2 µM [inhibitor, partial curve, poor fit]"}
{"smiles": "CCN1CCCC1CNC(=O)c1ccc2c(c1)NC(=O)/C(=C\\c1ccccc1Cl)S2", "note": "(configuration not stated)", "Potency": "inconclusive: 20 µM [inhibitor, single point]"}
{"smiles": "CS(=O)(=O)c1ccc(C(=O)OCC(=O)NC23CC4CC(CC(C4)C2)C3)cc1[N+](=O)[O-]", "Potency": "inconclusive: 25.1 µM [inhibitor, single point]"}
{"smiles": "Cc1ccc(NC(=O)COc2ccccc2CNC(C)(C)CC(C)(C)C)cc1", "Potency": "inconclusive: 35.5 µM [inhibitor, single point]"}
{"smiles": "CCc1cc(=S)n2c([nH]c3ccccc32)c1C#N", "Potency": "active: 7.94 µM"}
{"smiles": "Cc1ccccc1N(C(=O)c1snc(C(N)=O)c1N)C(C(=O)NCC1CCCO1)c1ccc(F)cc1", "note": "(configuration not stated)", "Potency": "inactive"}
{"smiles": "CCn1c(=O)c2cc(C(=O)NCC(OC)OC)sc2c2ccccc21", "Potency": "inactive"}
{"smiles": "CNC(=O)C(=O)Nc1nc(C23CC4CC(CC(C4)C2)C3)cs1", "Potency": "inactive"}
{"smiles": "NC(=O)CC(NC(=O)c1ccccc1)c1ccc(N2CCCCCC2)c([N+](=O)[O-])c1", "note": "(configuration not stated)", "Potency": "inactive"}
{"smiles": "O=C(Nc1cccc2ccccc12)/C(=C/c1ccc([N+](=O)[O-])cc1)NC(=O)c1ccccc1", "Potency": "inactive"}
{"smiles": "O=C(CS(=O)c1ccc(C(F)(F)F)cc1[N+](=O)[O-])Oc1ccc(Cl)cc1", "note": "(configuration not stated)", "Potency": "inconclusive: 22.4 µM [inhibitor, single point]"}
{"smiles": "Cc1ccccc1-n1cc(CNCc2c(C(=O)N(C)C)nc3ccc(Cl)cn23)cn1", "Potency": "inconclusive: 35.5 µM [inhibitor, single point]"}
{"smiles": "Cc1ccc(NS(=O)(=O)c2cc(NC(=O)c3cc4c(s3)CCCC4)ccc2C)c(C)c1", "Potency": "inactive"}
{"smiles": "O=C(CCn1cnnn1)Nc1cc(C(F)(F)F)cc(C(F)(F)F)c1", "Potency": "inactive"}
{"smiles": "CC(C)Oc1cccc(C2CC(=O)Nc3cc4c(cc32)OCO4)c1", "note": "(configuration not stated)", "Potency": "inconclusive: 10 µM [inhibitor, partial curve, poor fit]"}
{"smiles": "CCOC(=O)c1cccc2c1-c1ccccc1/C2=N/O", "Potency": "inconclusive: 6.31 µM [inhibitor, full curve, poor fit]"}
{"smiles": "Cc1cc(N)n(-c2nc(-c3cccnc3)nc3ccccc23)n1", "Potency": "inconclusive: 6.31 µM [inhibitor, single point]"}
{"smiles": "COc1ccccc1NS(=O)(=O)c1cccc(N=C2N=C(N)c3ccccc32)c1", "Potency": "inconclusive: 35.5 µM [inhibitor, single point]"}
{"smiles": "O=C1c2cccc(NCCNCCO)c2C(=O)c2cccc(NCCNCCO)c21", "Potency": "inconclusive: 3.55 µM [inhibitor, full curve, poor fit]"}
{"smiles": "COc1ccccc1C1=NN(C(=S)Nc2ccccc2)C(c2ccco2)C1", "note": "(configuration not stated)", "Potency": "inactive"}
{"smiles": "COc1ccc(C(C)(O)c2nc(-c3cc(F)cc(F)c3)cs2)cc1", "note": "(configuration not stated)", "Potency": "inconclusive: 35.5 µM [inhibitor, single point]"}
{"smiles": "O=C(Nc1ccccc1)Nc1snnc1C(=O)Nc1cccc(O)c1", "Potency": "inconclusive: 22.4 µM [inhibitor, single point]"}
{"smiles": "Nc1c(C(=O)Nc2ccc3c(c2)OCCO3)nnn1CCc1ccccc1", "Potency": "inconclusive: 25.1 µM [inhibitor, single point]"}
{"smiles": "O=C(Nc1cccc(S(=O)(=O)N2CCCC2)c1)[C@H]1C[C@H](O)[C@@H](CO)O1", "Potency": "inactive"}
{"smiles": "COc1ccc(N2CCN(C(=O)C(Cc3ccccc3)NC(=O)c3ccccc3)CC2)cc1", "note": "(configuration not stated)", "Potency": "inconclusive: 12.6 µM [inhibitor, single point]"}
{"smiles": "Cc1ccc(Cl)cc1N1CCN(C(=O)CCCn2c(=O)[nH]c3ccc(Br)cc3c2=O)CC1", "Potency": "active: 11.2 µM"}
{"smiles": "C/C(=C\\C(=O)c1ccccc1)Nc1ccc(Cl)c(Br)c1", "Potency": "inactive"}
{"smiles": "O=S(=O)(Nc1cc(F)ccc1F)c1ccc2[nH]c3c(c2c1)CCCCC3", "Potency": "inconclusive: 22.4 µM [inhibitor, single point]"}
{"smiles": "O=C(Cc1cccs1)Nc1ccccc1-c1nc2ccccc2[nH]1", "Potency": "inactive"}
{"smiles": "C=CCN(C(=O)c1cccc(S(=O)(=O)N2CCN(C)CC2)c1)c1nc(-c2ccccc2)cs1", "Potency": "inconclusive: 12.6 µM [inhibitor, single point]"}
{"smiles": "CC(C)(C)c1ccc(Oc2ccc(NC(=O)CCC(=O)OCC(=O)c3ccccc3)cc2)cc1", "Potency": "inconclusive: 15.8 µM [inhibitor, single point]"}
{"smiles": "O=C(CCN1C(=O)/C(=C/c2ccccc2Cl)SC1=S)Nc1cccnc1", "Potency": "inactive"}
{"smiles": "CC1CCC(=O)N(CCC#N)CC1", "note": "(configuration not stated)", "Potency": "inconclusive: 5.62 µM [inhibitor, single point]"}
{"smiles": "COc1ccc(CC(N)c2csc(NC(=O)Cc3ccccc3)n2)cc1", "note": "(configuration not stated)", "Potency": "inconclusive: 35.5 µM [inhibitor, single point]"}
{"smiles": "COC(=O)c1c(-c2ccc(Br)cc2)csc1NC(=O)Cc1ccc(OC)c(OC)c1", "Potency": "inconclusive: 35.5 µM [inhibitor, single point]"}
{"smiles": "CCC(=O)C1=C(c2ccc(OC)c(OC)c2)N(C(=O)CC)n2c(CC)nnc2S1", "Potency": "inconclusive: 10 µM [inhibitor, partial curve, poor fit]"}
{"smiles": "CCn1cc(-c2ccccc2)c(C(=O)O)c1-c1ccc(OC)cc1", "Potency": "inactive"}
{"smiles": "Cc1ccc(S(=O)(=O)NCCNc2ccc(Br)c(C)c2)cc1", "Potency": "inconclusive: 12.6 µM [inhibitor, single point]"}
{"smiles": "CN(C)c1nc(Cl)nc(N(C#N)CCOc2ccccc2)n1", "Potency": "inactive"}
{"smiles": "O=C(CCCn1c(=S)[nH]c2ccccc2c1=O)N1CCN(c2cccc(Cl)c2)CC1", "Potency": "inconclusive: 4.47 µM [inhibitor, partial curve, poor fit]"}
{"smiles": "CCc1cccc(NC(=S)Nc2cccc3ccccc23)c1", "Potency": "inconclusive: 35.5 µM [inhibitor, single point]"}
{"smiles": "N#C/C(=C\\c1cccnc1)C(=O)Nc1ccc(O)cc1F", "Potency": "inactive"}
{"smiles": "CSCCC1NC2(C(=O)Nc3c(C)cc(Cl)cc32)[C@@H]2C(=O)N(C3CCCC3)C(=O)[C@H]12", "note": "(some centres not stated)", "Potency": "inconclusive: 17.8 µM [inhibitor, partial curve, poor fit]"}
{"smiles": "CC1(C(=O)OCC(=O)Nc2nnc(-c3ccccc3)o2)CC1(Cl)Cl", "note": "(configuration not stated)", "Potency": "inconclusive: 5.62 µM [inhibitor, full curve]"}
{"smiles": "CC(C)(C)NC(=O)C(=O)NNC(=O)c1cccc([N+](=O)[O-])c1", "Potency": "inconclusive: 0.631 µM [inhibitor, full curve]"}
{"smiles": "CCOc1ccc(S(=O)(=O)N2CCC(C(=O)NCc3ccncc3)CC2)cc1", "Potency": "inconclusive: 5.62 µM [inhibitor, full curve]"}
{"smiles": "O=C(Nc1ccc(Nc2ccccc2)cc1)c1ccc(Cl)c([N+](=O)[O-])c1", "Potency": "inconclusive: 31.6 µM [inhibitor, single point]"}
{"smiles": "CCCC(CCC)C(=O)Nc1ccc2c(c1)N(C(=O)CN1CCN(C)CC1)c1ccccc1CC2", "Potency": "inactive"}
{"smiles": "CCOc1ccc(Nc2cc(C)c3ccccc3n2)cc1", "Potency": "inconclusive: 28.2 µM [inhibitor, single point]"}
{"smiles": "Cc1ccc(NC(=O)c2ccc(CNS(=O)(=O)c3ccc4c(c3)C(C)(C)C(=O)N4C)cc2)cc1C", "Potency": "inconclusive: 22.4 µM [inhibitor, single point]"}
{"smiles": "COc1ccc2c(c1)Cc1sc(NC(=O)c3ccco3)nc1-2", "Potency": "inconclusive: 35.5 µM [inhibitor, single point]"}
{"smiles": "CCN(CC(=O)N1CCN(Cc2ccccc2)CC1)S(=O)(=O)c1ccc(F)cc1", "Potency": "inactive"}
{"smiles": "CC(=O)c1ccc2c(c1)N(Cc1ccc3ccccc3c1)C(=O)C(C)S2", "note": "(configuration not stated)", "Potency": "active: 7.94 µM"}
{"smiles": "COc1ccc(CNCC(O)COc2ccc(C(C)(C)c3ccccc3)cc2)cc1", "note": "(configuration not stated)", "Potency": "inconclusive: 35.5 µM [inhibitor, single point]"}
{"smiles": "Cc1ccc(OCC(=O)Nc2ccc(NC(=O)c3cccs3)cc2)c(C)c1", "Potency": "inconclusive: 22.4 µM [inhibitor, partial curve, poor fit]"}
{"smiles": "CCOC(=O)Cn1c(C(F)(F)F)nc2nc(Cl)c(Cl)nc21", "Potency": "inconclusive: 35.5 µM [inhibitor, single point]"}
{"smiles": "Cc1cc(NC(=O)Cc2cn3ccsc3n2)n(-c2ccccc2)n1", "Potency": "inconclusive: 11.2 µM [inhibitor, partial curve, poor fit]"}
{"smiles": "O=C(Nc1ccc(Cl)c(Cl)c1)Nc1ccc(N2CCCC2)c(S(=O)(=O)Nc2ccccc2Cl)c1", "Potency": "active: 3.16 µM"}
{"smiles": "Cc1cccc(OCC(=O)N/N=C/C=C/c2ccco2)c1", "Potency": "inconclusive: 15.8 µM [inhibitor, single point]"}
{"smiles": "COc1ccc(CCNC(=O)c2cc3c(=O)n4ccccc4nc3n(C3CCCCC3)c2=N)cc1OC", "Potency": "inconclusive: 35.5 µM [inhibitor, single point]"}
{"smiles": "CCOC(=O)/C(=N/Nc1ccc(Cl)cc1)Sc1nnnn1-c1ccc(C)cc1", "Potency": "inactive"}
{"smiles": "CCC1CCCCN1c1nc(-c2cccc(OC)c2O)nc2ccccc12", "note": "(configuration not stated)", "Potency": "inconclusive: 22.4 µM [inhibitor, single point]"}
{"smiles": "CCn1cc(CN2CCC(C(=O)Nc3ccc(Oc4ccccc4)nc3)CC2)cn1", "Potency": "inconclusive: 22.4 µM [inhibitor, single point]"}
{"smiles": "COCCCNCCCCOc1cccc(Br)c1", "Potency": "inconclusive: 3.16 µM [inhibitor, single point]"}
{"smiles": "O=C(NCc1ccccc1Cl)c1ccc(Cn2c(SCc3ccccc3)nc3cccnc32)cc1", "Potency": "inconclusive: 3.16 µM [inhibitor, partial curve]"}
{"smiles": "CSc1ccc(Cn2c(C)c(C(=O)NCc3ccc(C(C)C)cc3)sc2=O)cc1", "Potency": "inconclusive: 22.4 µM [inhibitor, single point]"}
{"smiles": "Cc1c(C)n(Cc2ccccc2)c2ccc(C(=O)OCCN(C)C)cc12", "Potency": "inconclusive: 12.6 µM [inhibitor, single point]"}
